{
  "source": "PubChem BioAssay AID1508642",
  "about": "(National Center for Advancing Translational Sciences (NCATS), 2021)",
  "note": "About 200 (0.47%) of roughly 43,000 compounds were called active. Inconclusive results (about 12%) are left out. The call rests on the fitted dose curve; in most records, active means well fitted cell-killing curve with a large enough effect; inconclusive means small, poorly fitted or top-dose-only effect, or effect the other way; inactive means flat fitted curve, though single readings scatter. The list shows a part of the results.",
  "data": [
    {"test": "Cell viability qHTS assay in S16 Pmp22-F2sN cells; further: on the % scale 0 is the no-effect control and ±100 the full control effect; nearly all actives have a fitted effect of over 65% in size", "conditions": "S16 Pmp22-F2sN Schwann cells (luciferase reporters placed in the Pmp22 gene) viability, CellTiter-Glo, 24 h; series mostly up to 57.5 µM; activity change, negative = cytotoxicity: at the top concentration", "source_text": "Assay Provider: Jim Inglese Ph.D. National Center for Advancing Translational Science, National Institutes of Health, Rockville, MD CMT is a heterogeneous group of neurological disorders that affect approximately 1 in 2,500 people. In particular, the most common form of CMT, CMT1A is genetically linked to the duplication of the PMP22 gene which leads to Schwann cell overexpression, thus manifesting itself as a typical case of dose-sensitive diseases. To identify small molecule compounds that can mediate the expression of PMP22 we developed a phenotypic assay screening strategy by utilizing genome editing techniques to construct Schwann cell lines containing novel reporter technology to monitor the transcriptional or translational regulation of PMP22. For high sensitivity we use a bioluminescent reporter system embedded in the 3' UTR of the PMP22 gene (S16(c9) Pmp22-F2sN) to identify compounds that inhibit gene expression. […] We can further discriminate the effect of all transcriptionally active molecules on PMP22 translation or stability with an assay that incorporates a short NLuc peptide (HiBiT) at the C-terminus of expressed PMP22 (S16(f8) PMP22-HiBiT) allowing alpha complementation and luminescence detection of membrane-associated PMP22 protein. These assays were screened against the NCATS Sytravon Library Collection. Miniaturization of these assays to 1536-well plate format for quantitative high throughput screening (qHTS) yielded rich data sets immediately from the qHTS assay (S16(c9) Pmp22-F2sN), when compared with data from a cell viability assay (Cell TiterGlo) to identify compounds that decreased the output signals through cellular toxicity to streamline the selection process of actives for subsequent characterization using the HiBiT assay (S16(f8) PMP22-HiBiT).\nCell viability assay in S16 Pmp22-F2sN cells PROTOCOL TABLE (format as described by Inglese J, Shamu CE and Guy RK. 2007) SEQUENCE No. (e.g., 1, 2, 3, etc.); […] (e.g., Cells, Incubation, Reagent, etc.); VALUE and DESCRIPTION. 1. Cells. Add 500-1,000 cells in 4 uL in growth media (DMEM High Glucose, No Phenol Red media + 10% heat-inactivated FBS + 1% Pen/Strep supplemented media) per well into Greiner 1536-well white/solid bottom high base, TC-treated plates. 2. Compounds. Library compounds and controls added at 23nL per well, transferred by Pin Tool. 3. Incubation. Incubate plates at 37C, 5% CO2, 95% RH for 24 h. 4. Reagent. Add 3uL CellTiter-Glo per well of Greiner 1536-well plates. 5. Incubation. Incubate plates at room temperature for 15 min., protect from light. 6. Detector. FLuc luminescence measured using CCD-based camera (Viewlux). NOTES (numbers refer to Sequence numbers above; values are from representative experiments) 6. Luminescence Read: Clear filter; Exposure = 1 sec, Gain = High, Speed = Slow, Binning = 2X REFERENCES: 1. Inglese J, Shamu CE and Guy RK, Reporting data from high throughput screening of small molecule libraries, Nature Chemical Biology, 2007, 3(8): 438-441. doi.org/10.1038/nchembio0807-438 2. Yasgar A, Shinn P, Jadhav A, Auld DS, Michael S, Zheng W, Austin CP, Inglese J and Simeonov A, Compound Management for Quantitative High-Throughput Screening. J. Assoc. Lab. Auto., 2008, 13: 79-89. doi: 10.1016/j.jala.2007.12.004", "values": [
      {"compound": "CCOc1ccc(/C=C/C(=O)Nc2sc3c(c2C(=O)OC)C(C(=O)OC)CC3)cc1", "note": "(stereo not given)", "activity change, negative = cytotoxicity": "inactive: -10%"},
      {"compound": "COC(=O)c1ccc(NC(=O)CSc2nc(C)cc(C)c2C(=O)Nc2ccccc2)cc1", "activity change, negative = cytotoxicity": "inactive: 2.49%"},
      {"compound": "COc1ccc(N2CCN(C(=O)c3cccc(-n4c(C)nc5cccnc54)c3)CC2)cc1", "activity change, negative = cytotoxicity": "inactive: -17.7%"},
      {"compound": "CCc1cccc(NC(=O)c2cn3c4c(ccc(Cl)c4c2=O)OC(C)C3)c1", "note": "(stereo not given)", "activity change, negative = cytotoxicity": "inactive: -1.11%"},
      {"compound": "CCCNS(=O)(=O)c1ccc2nc(NC(=O)c3ccc(F)cc3)sc2c1", "activity change, negative = cytotoxicity": "inactive: 4.57%"},
      {"compound": "O=C(NCCC1=CCCCC1)c1ccc2c(c1)N(Cc1ccccc1F)C(=O)c1ccccc1S2=O", "note": "(stereo not given)", "activity change, negative = cytotoxicity": "inactive: -0.758%"},
      {"compound": "CCn1nnc2cc(C(=O)Nc3ccc(Cl)cc3C)ccc21", "activity change, negative = cytotoxicity": "inactive: -5.23%"},
      {"compound": "CCc1cccc(-n2c(=O)c3cccnc3n2CC(=O)NCc2ccccc2)c1", "activity change, negative = cytotoxicity": "inactive: 4.46%"},
      {"compound": "CCOC(=O)c1cc(C)n(CC2CCC(C(=O)Nc3ccc(C(C)=O)cc3)CC2)c1C", "note": "(stereo not given)", "activity change, negative = cytotoxicity": "inactive: -15.4%"},
      {"compound": "CCOc1ccccc1Nc1sc(C(=O)c2ccccc2)c(N)c1C(=O)Nc1ccccc1", "activity change, negative = cytotoxicity": "inactive: -29.1%"},
      {"compound": "CCc1ccc(NC(=O)Cn2c(=O)n(CCCCC(=O)NCc3ccc4c(c3)OCO4)c(=O)c3ccccc32)cc1", "activity change, negative = cytotoxicity": "inactive: 1.97%"},
      {"compound": "CC(=O)c1cc(-c2ccccc2)n(CCC(=O)NCc2ccc(C)cc2)c1C", "activity change, negative = cytotoxicity": "inactive: 0.486%"},
      {"compound": "CCOc1ccccc1NC(=O)c1ccc2c(Cl)c3c(nc2c1)CCC3", "activity change, negative = cytotoxicity": "inactive: 7.28%"},
      {"compound": "CCOc1ccccc1CNc1ccc2cc(S(=O)(=O)N3CCC(C)CC3)ccc2n1", "activity change, negative = cytotoxicity": "inactive: -21.4%"},
      {"compound": "COc1ccc(-c2nn3c(=O)cc(CN4CCN(C(=O)c5ccc(OC)c(OC)c5)CC4)nc3s2)cc1", "activity change, negative = cytotoxicity": "inactive: 18%"},
      {"compound": "COc1ccc(-c2noc(N(c3nc(-c4ccc(OC)c(OC)c4)no3)c3ccccc3OC)n2)cc1OC", "activity change, negative = cytotoxicity": "inactive: 0.243%"},
      {"compound": "CC(=O)c1cccc(NC(=O)c2nc(-c3ccccc3)n(-c3cccc(Cl)c3)n2)c1", "activity change, negative = cytotoxicity": "inactive: -11%"},
      {"compound": "CCc1ccc(NC(=O)C(=O)NCC(c2cccnc2)N2CCN(c3ccc(F)cc3)CC2)cc1", "note": "(stereo not given)", "activity change, negative = cytotoxicity": "inactive: -16.3%"},
      {"compound": "Cc1ccc(C(=O)Nc2ccc(S(=O)(=O)N3CCC(c4nc5ccccc5s4)CC3)cc2)cc1", "activity change, negative = cytotoxicity": "inactive: 8.45%"},
      {"compound": "Cc1ccc(NC(=O)c2nc(S(C)(=O)=O)ncc2N(Cc2ccco2)Cc2cccs2)c(C)c1", "activity change, negative = cytotoxicity": "inactive: -19.3%"},
      {"compound": "Cc1ccc(NC(=O)CSc2nc(=O)n(CCN3CCOCC3)c3c2CCC3)c(C)c1", "activity change, negative = cytotoxicity": "inactive: -2.96%"},
      {"compound": "Cc1ccc(OCCCCn2nnc3sc4c(c3c2=O)CCCC4)cc1", "activity change, negative = cytotoxicity": "inactive: 6.81%"},
      {"compound": "CCCCn1cc(S(=O)(=O)c2ccc(OC)cc2)c(=O)c2cc(CC)ccc21", "activity change, negative = cytotoxicity": "inactive: -0.672%"},
      {"compound": "CNC(=O)C1CCC(Cn2c(=O)c3sccc3n(CC(=O)Nc3ccc(C)c(C)c3)c2=O)CC1", "note": "(stereo not given)", "activity change, negative = cytotoxicity": "inactive: -3.21%"},
      {"compound": "O=S(=O)(c1ccccc1)c1nnn2c1nc(NC1CCCCC1)c1sccc12", "activity change, negative = cytotoxicity": "inactive: -0.431%"},
      {"compound": "COc1ccc(CCNC(=O)C2CCC(CNS(=O)(=O)c3ccc(C)cc3)CC2)cc1OC", "note": "(stereo not given)", "activity change, negative = cytotoxicity": "inactive: 13.4%"},
      {"compound": "Cc1ccc(CN(C(=O)c2ccccc2)c2ccccn2)o1", "activity change, negative = cytotoxicity": "inactive: 0.566%"},
      {"compound": "O=C(O)CCCCn1c(SCC(=O)Nc2ccccc2C(F)(F)F)nc2ccsc2c1=O", "activity change, negative = cytotoxicity": "inactive: 8.32%"},
      {"compound": "Cc1ccc(Cl)cc1NC(=O)Nc1nnc(N(C)Cc2ccccc2)s1", "activity change, negative = cytotoxicity": "inactive: -1.35%"},
      {"compound": "Cn1c(=O)c2c(SCC(=O)Nc3ccccc3C(F)(F)F)nc(C3CCCC3)nc2n(C)c1=O", "activity change, negative = cytotoxicity": "inactive: 3.64%"}
    ]}
  ]
}
